Test results published in the supplement of paper PMC3334620.
The full ranking holds about 33,000 sequences; the median of “E-score (-0.5 to 0.5)” is about -0.013, and the highest 2% start at about 0.3. This is one part of the list.

The sequences below were run against T1, Msn1 (UniProt P22148) (assay: PBM E-score (8-mer binding enrichment) (E-score (-0.5 to 0.5)); higher = stronger / more preferred TF binding; most listed sequences are background and not binding sites). Settings: protein concentration: 200 nM; construct: GST-full length.
T1 sequence: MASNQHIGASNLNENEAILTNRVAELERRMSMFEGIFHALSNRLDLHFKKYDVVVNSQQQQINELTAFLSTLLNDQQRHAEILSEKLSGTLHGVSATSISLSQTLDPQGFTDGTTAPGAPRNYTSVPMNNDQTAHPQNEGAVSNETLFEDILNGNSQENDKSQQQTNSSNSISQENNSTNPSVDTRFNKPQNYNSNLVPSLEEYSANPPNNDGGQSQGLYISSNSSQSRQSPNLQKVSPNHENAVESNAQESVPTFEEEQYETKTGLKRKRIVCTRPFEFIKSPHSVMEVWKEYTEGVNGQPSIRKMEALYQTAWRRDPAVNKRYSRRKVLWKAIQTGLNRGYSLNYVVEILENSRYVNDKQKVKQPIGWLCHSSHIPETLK
How it was run: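 Universal all-10-mer Agilent arrays, fresh or stripped once, were converted to double-stranded form by primer extension. GST-tagged yeast transcription factors from PURExpress in vitro transcription/translation, full-length or DNA-binding domain only, were applied at about 100-200 nM and detected with fluorescent anti-GST. After masliner normalisation, the Universal PBM Analysis Suite scored each ungapped eight-base word together with its reverse complement by E-score.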

Sequence | PBM E-score
AGGCCGAC | -0.172
TTGGCCAA | -0.144
CAGAACAC | -0.0663
TAACTCTA | -0.169
GCGCTAGA | -0.116
TCGCTAGA | -0.152
AAGGTTCA | -0.157
TGGCTTAA | 0.0667
CAGCAGCC | -0.00462
CACGCAAC | 0.0696
AACACCTA | -0.134
ACGGTCAC | -0.201
CCCATGCC | -0.212
GCTACCCC | -0.366
CGTACCAC | -0.0887
CAGAAGGG | -0.107
ACGCCACG | -0.267
GACACACA | 0.252
ATCCGCCC | -0.16
CCGCCAGA | -0.0748
ACACTGTG | -0.158
TCCGAACA | 0.125

Sequence | PBM E-score
AAAGGGGA | -0.155
ACACGCAC | -0.0554
CGCGCGAC | 0.0519
GGCGCGAA | 0.0134
ATATATTA | 0.207
GTGAACAC | -0.108
AGTGACCA | -0.0538
TCTTAGCA | 0.0404
AGTAAGTG | -0.14
TCGTTAGA | -0.144
ACAACATG | 0.0414
AGTTCTAT | 0.00633
ATGCGGAG | -0.00178
ACGAGTGA | -0.222
CTGTTGGC | -0.138
TGTTAGAA | -0.0208
ACACCTAT | 0.0304
GGCTGGGA | -0.21
GTATAAAA | 0.288
GCCTCTCA | -0.25
CATCCCGA | 0.0979
GGTTTCAC | -0.0106

Sequence | PBM E-score
GTAACTTA | -0.0611
CCCAGGCA | -0.0743
AACGGCCG | 0.142
AACCTCTC | -0.312
AGACGTAC | 0.0857
CCGTGAGG | -0.283
CGATACTC | -7e-05
CGCCGTGC | -0.0986
ACATTTAG | 0.279
TCGATCGA | 0.045
GATAGGTA | 0.142
GCTCGCGA | 0.0813
AATCCTGG | -0.0714
GATATCTA | -0.0906
CATCGCCA | 0.106
AAACCCTT | 0.121
AACTGGCC | -0.00151
CCAAGATA | 0.0653
AGCGTTAT | -0.0134
ACGATGTC | 0.275
CATGCCAG | -0.212
GAAGGTGC | -0.167

Sequence | PBM E-score
GTTCTCTA | 0.0807
CGCTTAGA | -0.228
AGCGAACG | -0.274
ACGAATCG | 0.0506
CGGTTGCA | -0.106
CGGAGCCG | -0.104
GATACAGA | 0.124
ATCATGAG | -0.0171
GATACCTA | 0.0926
ATTTCGCC | 0.116
CGTTTCTA | 0.109
CGGCTGAC | 0.00649
CTTCTCGC | -0.0908
AGCTACAC | -0.0363
AGTGTTTG | 0.1
TACTAGCA | 0.062
TCCAGTAA | -0.0623
CCCACGAA | 0.107
CTTAGGAC | 0.269
ACTGACAC | 0.0553
